# Laboratory results from the supplement of paper PMC10126150.
# Values marked as one replicate rest on one cluster of the flow cell; about a third of the high ones do not repeat.
# Test system: ATP
# Experiment: switch fluorescence ratio, 500 uM ATP over buffer (Cy3 cluster intensity, sum of 5 cycles each) (fold (ratio)); higher = stronger signal-on switching upon ATP binding; sequences stand for … in TCGTCGGCAGCGTCAGATGTGTATAAGAGACAGTTTTTTTTTTTTTTTTTTTTTTTTT…TC
# Conditions: aptamer strand: ATP DNA aptamer (quencher-CACCTGGGGGAGTATTGCGGAGGAAGG + anchor), 100 nM annealed; ATP concentration: 500 uM; one replicate
# Method in brief: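 Switching-strand clusters labelled with Cy3 on a modified Illumina MiSeq flow-cell were annealed to 100 nM quencher-labelled ATP aptamer, imaged in selection buffer, and re-imaged after 15 min with 500 uM ATP at 22 °C. This was done over five cycles with NaOH stripping and re-annealing in between. The fluorescence ratio is summed target-cycle over summed buffer-cycle Cy3 intensity per cluster, averaged per switch-domain sequence, excluding clusters outside 100-1000 RFU.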
# 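Note: ATP exposure 15 min at 22 °C before imaging.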
row,Sequence,switch fluorescence ratio
1,TTGTTTGGC,0.976
2,TTTAAAACCC,0.982
3,TTTAAATTA,1
4,TTTAACGA,1.01
5,TTTAAGATTC,1
6,TTTAAGTACA,1.03
7,TTTAAGTTAT,1.01
8,TTTAATAATA,1.01
9,TTTAATACA,1.03
10,TTTAATGGGC,0.929
11,TTTAATTTCA,1.03
12,TTTACATAA,1.04
13,TTTACCAGCA,1.01
14,TTTACCCCAC,1.39
15,TTTACGGAAT,1.12
16,TTTACTCTAG,1.13
17,TTTAGAACAG,1.01
18,TTTAGAACCA,1.02
19,TTTAGAAGAA,1.02
20,TTTAGAGACG,1.04
21,TTTAGAGCAG,1.05
22,TTTAGATCTG,1.07
23,TTTAGATGTA,1.01
24,TTTAGCCACA,0.971
25,TTTAGCGGCC,1.01
26,TTTAGCGGCG,0.96

row,Sequence,switch fluorescence ratio
1,TTTAGCTAGA,1.05
2,TTTAGGGATC,1.02
3,TTTAGTATC,0.978
4,TTTAGTCCAT,0.984
5,TTTAGTTCA,0.998
6,TTTATATGG,1.02
7,TTTATCGCAA,2.49
8,TTTATCGGTT,0.987
9,TTTATCTGGT,0.985
10,TTTATCTGTT,1.05
11,TTTATCTTAA,1.01
12,TTTATGGGC,0.989
13,TTTATGTACA,1.03
14,TTTATTAAGA,0.997
15,TTTATTGAAT,0.995
16,TTTATTGACA,1.04
17,TTTATTTCGA,0.984
18,TTTATTTTA,1
19,TTTATTTTAC,1.06
20,TTTCAAGGCT,0.994
21,TTTCACACTG,1.01
22,TTTCACGATG,1
23,TTTCACTGAG,1.02
24,TTTCAGAGAT,0.957
25,TTTCAGCACG,1.04
26,TTTCAGTCTG,0.988

row,Sequence,switch fluorescence ratio
1,TTTCAGTTTG,0.974
2,TTTCATCGAT,1.02
3,TTTCATGAGT,0.978
4,TTTCATGCCC,0.984
5,TTTCATGCGC,1.14
6,TTTCATTCGT,1.04
7,TTTCCAATAT,1.05
8,TTTCCAATTG,1.02
9,TTTCCACTGC,1.08
10,TTTCCAGTCC,0.989
11,TTTCCATTAG,1.06
12,TTTCCCTTCA,1.27
13,TTTCGAAGG,1.02
14,TTTCGAGGTA,1
15,TTTCGCTACA,0.967
16,TTTCGCTCAT,1.02
17,TTTCGGCGTA,1.05
18,TTTCGTAATC,0.969
19,TTTCGTATAT,1.02
20,TTTCTACTGC,1.05
21,TTTCTAGGCG,1.03
22,TTTCTATAAA,1.02
23,TTTCTATGTG,0.943
24,TTTCTCAACG,1.03
25,TTTCTCATC,0.955
26,TTTCTCCCGA,1.42

row,Sequence,switch fluorescence ratio
1,TTTCTCCGGA,1.05
2,TTTCTCGC,1.47
3,TTTCTGATTG,1.04
4,TTTCTTAGGC,1.03
5,TTTCTTTCTG,0.959
6,TTTCTTTTAG,1.01
7,TTTGAAACTT,1.05
8,TTTGAACCAG,0.988
9,TTTGAAGGAG,0.989
10,TTTGAAGGT,1.03
11,TTTGACAATC,1.23
12,TTTGACACTG,0.929
13,TTTGAGAACT,0.994
14,TTTGAGAGAA,1.06
15,TTTGAGCGGA,0.973
16,TTTGAGGCAG,1.03
17,TTTGAGGCTG,0.959
18,TTTGAGGTG,1.06
19,TTTGAGGTTG,1.01
20,TTTGAGTTAG,0.973
21,TTTGATCAGG,1
22,TTTGATGCGG,1.02
23,TTTGCA,1.04
24,TTTGCAAGAT,1.18
25,TTTGCACAAT,1.01
26,TTTGCACGGG,1.03

row,Sequence,switch fluorescence ratio
1,TTTGCATTAC,3.67
2,TTTGCCCGCG,0.955
3,TTTGCCCTAG,1.02
4,TTTGCCTATT,1.04
5,TTTGCCTTAA,1.06
6,TTTGCCTTAT,1.03
7,TTTGCGCCTG,0.96
8,TTTGCGCGGT,1
9,TTTGCGTACT,1.02
10,TTTGCTACGC,1
11,TTTGGAAAAG,1.03
12,TTTGGCAAGC,2.08
13,TTTGGCAGAG,1.04
14,TTTGGCCACC,1
15,TTTGGCCCGA,1.01
16,TTTGGCGGC,1.01
17,TTTGGCTCCA,1
18,TTTGGCTCG,0.977
19,TTTGGGAGAG,1.5
20,TTTGGTAG,0.992
21,TTTGGTCAAT,0.999
22,TTTGGTGT,1.02
23,TTTGGTTCA,0.989
24,TTTGGTTGCA,1.04
25,TTTGTCAA,1.08
26,TTTGTCCAGC,1.07

row,Sequence,switch fluorescence ratio
1,TTTGTCTTT,0.977
2,TTTGTGAAGC,0.991
3,TTTGTGACGT,0.969
4,TTTGTGGATC,1.05
5,TTTGTGTGAC,0.994
6,TTTGTTAATG,0.994
7,TTTGTTCTG,1.07
8,TTTGTTGGAC,1.06
9,TTTGTTGGCG,1.06
10,TTTTAACGAT,1
11,TTTTAAGCCA,1.08
12,TTTTAAGT,0.987
13,TTTTACAGTC,0.961
14,TTTTATCCAA,1.02
15,TTTTATCGTT,1
16,TTTTCACA,0.941
17,TTTTCAGCGC,0.999
18,TTTTCCTAGC,1
19,TTTTCCTCCG,1.35
20,TTTTCGCAGG,1.1
21,TTTTCGGCCG,1.02
22,TTTTCTACCT,1.14
23,TTTTGAAGCT,0.879
24,TTTTGACGAT,0.984
